Several values for one entry are separate records, joined by “and”; a condition that tells them apart may be missing. Identical values can stand only once. The whole screen tested about 410,000 compounds, of which about 5,000 (1.2%) were called active. Inconclusive means that the source gave no clear call. Such entries were picked first, then a sample of the others. Calls come from the whole dose curve; as a rule, active = well fitted inhibition curve with a large enough effect; inconclusive = small, poorly fitted or top-dose-only effect; inactive = no such curve, though single readings can be large or run the other way. A potency beside an inconclusive call is a rough fit, not a confirmed value.
Assay: qHTS for Inhibitors of TGF-b; note: nearly all actives have a fitted effect of over 65% in size
Details: HepG2 CAGA-GFP TGF-b/SMAD3 reporter, GFP fluorescence, 18 h, TGF-beta stimulated, 500 pg/mL final; series mostly up to 46.1 µM
Procedure, shortened: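 GFP signal (ex488/em500-530) from TGF-beta-stimulated HEPG2 CAGA-GFP cells, 500 pg/mL final, 18 h at 37 degrees C in DMEM plus 1% FBS, normalized to unstimulated and DMSO-stimulated controls.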
Potency is the fitted concentration of half-maximal effect; tags give direction and shape of the fitted curve.

SMILES	Potency
CCn1nc(C)cc1C(=O)NC1CCCc2c1cnn2-c1ccc(C)c(C)c1 (stereo not given)	inconclusive: 22.4 µM [inhibitor, single point]
CC(OC(=O)c1cccc([N+](=O)[O-])c1)C(=O)N1CCc2ccccc21 (stereo not given)	inactive
O=Cc1ccc(N2Cc3ccccc3C2)cc1	inconclusive: 5.62 µM [inhibitor, single point]
O=C(C(=O)N1CCN(c2ccc([N+](=O)[O-])cc2)CC1)c1cn(CC(=O)N2CCOCC2)c2ccccc12	inactive
CC(COC(=O)c1ccccc1)(COC(=O)c1ccccc1)/[N+]([O-])=C/c1ccccc1	inconclusive: 4.47 µM [inhibitor, partial curve, poor fit]
OCC[C@H]1C[C@@H](O)[C@H](O)[C@]2(CCc3ccccc3O2)O1	inactive
COc1ccc(OC)c(/C=N/NC(=O)CNC(=O)c2ccc(S(=O)(=O)N3CCOCC3)cc2)c1	inactive
CC(=O)Nc1ccc(S(=O)(=O)N2CCN=C2SCc2cccc(C)c2)cc1	inactive
Cc1nc2sc(C(N)=O)c(N)c2c(-c2ccc(Br)cc2)c1C(=O)Nc1ccc(Cl)cc1	inconclusive: 15.8 µM [inhibitor, partial curve, poor fit]
CC(=O)c1cccc(NC(=O)COC(=O)c2ccc(S(C)(=O)=O)c([N+](=O)[O-])c2)c1	active: 17.8 µM and active: 10 µM
CCSC1=C(C#N)C(c2ccc3c(c2)OCO3)C2=C(CCCC2=O)N1 (stereo not given)	inconclusive: 35.5 µM [inhibitor, single point]
O=C(c1cc(-c2ccc(Cl)c(Cl)c2)on1)N1CCCCC1	inactive
CC1Cc2cc(S(=O)(=O)CCC(=O)Nc3ccc(F)c(Cl)c3)ccc2N1C(=O)C1CC1 (stereo not given)	inconclusive: 12.6 µM [inhibitor, partial curve]
COc1cccc(C(=O)N2CCCC(c3nc(-c4cccs4)no3)C2)c1 (stereo not given)	inconclusive: 14.1 µM [inhibitor, single point]
O=C(CNc1cccc(S(=O)(=O)N2CCCCCC2)c1)Nc1cccc([N+](=O)[O-])c1	inconclusive: 22.4 µM [inhibitor, single point]
COc1ccccc1-c1cc(C(F)(F)F)nc(S(C)(=O)=O)n1	inconclusive: 2.82 µM [inhibitor, full curve]
COc1ccc(C2CC(c3ccccc3)=NN2c2ccc(S(N)(=O)=O)cc2)cc1OC (stereo not given)	inconclusive: 22.4 µM [inhibitor, single point]
O=S(=O)(Nc1nc2ccccc2s1)c1ccc(Br)s1	inconclusive: 35.5 µM [inhibitor, single point]
CCN1CCN(CC(=O)n2c3c(c4ccccc42)CC(C)CC3)CC1 (stereo not given)	inactive
C/C=C(\C)C(=O)N1CC2(CC(c3cccc(NC(=O)CCCCC)c3)=NO2)C[C@@H]1C(N)=O (stereo not given in full)	inconclusive: 0.708 µM [inhibitor, partial curve, poor fit]
CCC(=O)N1CCc2cc(S(=O)(=O)NC(CC(C)C)C(=O)NCc3ccc(F)cc3)ccc21 (stereo not given)	inconclusive: 5.62 µM [inhibitor, partial curve, poor fit]
O=C(CN1C(=O)/C(=C2\SC(=S)N(C3CCS(=O)(=O)C3)C2=O)c2ccccc21)Nc1ccccc1 (stereo not given)	inactive

SMILES	Potency
CCC(C)c1ccc(NC(=S)NN2CCOCC2)cc1 (stereo not given)	inconclusive: 5.62 µM [inhibitor, single point]
C[C@H]1CN([C@@H](C)CO)C(=O)CCCn2nncc2CO[C@@H]1CN(C)Cc1ccncc1	inconclusive: 6.31 µM [inhibitor, single point]
CCCCNC(=O)CCn1c(=O)c2ccccc2n(CC(=O)NCCc2ccc(OC)c(OC)c2)c1=O	inactive
CON(C)C(=O)CC1(CN(Cc2ccccc2)C(=O)OC(C)(C)C)CCCCC1	inconclusive: 35.5 µM [inhibitor, single point]
Cc1ccc(CN2CC(N3CCC(Cc4ccccc4)CC3)CS2(=O)=O)cc1 (stereo not given)	active: 14.1 µM
CCOC(=O)c1cnc2c(ccc3ccccc32)c1Nc1ccc(Cl)cc1	inactive
COCCNC(=S)N1CCC(C(=O)c2ccc(C)cc2)CC1	inconclusive: 35.5 µM [inhibitor, single point]
CCCS(=O)(=O)N1CCc2cc(OC)c(OC)cc2C1	inactive
O=C(O)/C=C/C(=O)c1ccc2c(c1)CCc1ccccc1-2	inconclusive: 12.6 µM [inhibitor, partial curve, poor fit]
CS(=O)(=O)c1nc(-c2ccc(Br)cc2)cc(-c2ccccc2)c1C#N	inactive
CCOc1ccc(S(=O)(=O)N2CCOCC2)cc1NC(=O)CSC(=S)N1CCCC1	inconclusive: 35.5 µM [inhibitor, single point]
CCOC(=O)c1cc(CC)sc1NC(=O)C1CC(=O)NN1Cc1ccccc1 (stereo not given)	inconclusive: 35.5 µM [inhibitor, single point]
Fc1ccc(Nc2cncc(-c3ccsc3)c2)cc1Cl	inconclusive: 35.5 µM [inhibitor, single point]
COc1ccc(-c2cn3nc(N4CCCC(C(=O)NCc5ccccc5OC)C4)sc3n2)cc1 (stereo not given)	inconclusive: 2.82 µM [inhibitor, partial curve, poor fit]
COc1ccc(C(=O)/C=C/Nc2ccc(NC(C)=O)cc2)cc1OC	inconclusive: 4.47 µM [inhibitor, single point]
CCOc1ccc(CNC(=O)C2CCCN(S(=O)(=O)N(C)c3ccc(F)cc3)C2)cc1OC (stereo not given)	inconclusive: 11.2 µM [inhibitor, partial curve]
Cc1ccccc1C(c1ncccc1C)N(C)C(=O)C1CCN(CCOc2ccc(Cl)cc2Cl)CC1 (stereo not given)	inconclusive: 28.2 µM [inhibitor, single point]
O=C(Nc1cccc(Br)c1)c1ccc(CN2CCc3ccccc3C2)cc1	inconclusive: 35.5 µM [inhibitor, single point]
Cc1ccc(-c2nnc(CSc3nnc(COc4ccccc4)n3-c3ccc(C)cc3)o2)cc1	inconclusive: 14.1 µM [inhibitor, partial curve]
Cc1nn(-c2ccccc2)c(C)c1C(=O)OCC(=O)NC(=O)NC1CCCC1	inconclusive: 7.08 µM [inhibitor, full curve]
CCCCN1C(=O)C(CC(=O)NCCCCc2ccccc2)CC(C(=O)N2CCOCC2)=C1C (stereo not given)	inactive
CC1CCN(S(=O)(=O)c2ccc(NC(=O)Cc3ccccc3)cc2)CC1	inconclusive: 12.6 µM [inhibitor, single point]

SMILES	Potency
Cc1cc(C(=O)OCC(=O)NC2CCS(=O)(=O)C2)c2ccccc2n1 (stereo not given)	inconclusive: 6.31 µM [inhibitor, single point]
Cc1cc(NC(=O)c2nn(C)c(C)c2[N+](=O)[O-])no1	inconclusive: 35.5 µM [inhibitor, single point]
COP(=O)(OC)C(=NNS(=O)(=O)c1ccc(C)cc1)c1ccccc1	inactive
Cc1oc(CC(C)C)cc1C(=O)Nc1ccc(C(=O)O)cc1	inconclusive: 6.31 µM [inhibitor, full curve]
COc1ccc(CNC(=O)c2ccc3c(c2)NC(=O)C(C)S3)cc1 (stereo not given)	inconclusive: 0.398 µM [inhibitor, partial curve, poor fit]
COCCOC(=O)c1sc2nc[nH]c(=O)c2c1C	inactive
O=[N+]([O-])c1ccccc1-c1ccc(C(=S)N2CCN(c3ccccc3)CC2)o1	inconclusive: 20 µM [inhibitor, single point]
O=C(CCCN1C(=O)/C(=C\c2ccccc2)SC1=S)Nc1ccc(C(=O)O)cc1	inactive
Cc1ccccc1C(=O)NC1CC2CCCC(C1)N2C(=O)Nc1ccccc1 (stereo not given)	inactive
O=[N+]([O-])c1ccc(C2(O)CN(c3ccccc3)C3=[N+]2CCS3)cc1 (stereo not given)	inactive
CCOc1ccc(Nc2cc(C)nc(-n3nc(C)cc3C)n2)cc1	inconclusive: 10 µM [inhibitor, partial curve]
O=C(CCN1C(=O)/C(=C/c2ccccc2)SC1=S)NCCc1ccc(O)cc1	inconclusive: 35.5 µM [inhibitor, single point]
COc1ccc(S(=O)(=O)N(C(C)=O)c2ccc(OC(C)=O)c3ccccc23)cc1[N+](=O)[O-]	inconclusive: 14.1 µM [inhibitor, partial curve, poor fit]
Cc1ccc(C(=O)c2c(NC(=O)CSc3nnc(N)s3)sc3c2CCCC3)cc1	inconclusive: 35.5 µM [inhibitor, single point]
C=CCc1c(OC)ccc2c1c(S(=O)(=O)c1ccc(C)cc1)cn2COC	inactive
O=S(=O)(NCCCCNS(=O)(=O)c1ccc(F)cc1)c1ccc(F)cc1	inactive
O=C(Nc1ccc2oc(-c3ccccc3F)nc2c1)c1ccc2c(c1)OCCO2	inconclusive: 17.8 µM [inhibitor, single point]
Cc1ccc(NC(=O)N2CCC(NC(=O)c3cccc(F)c3)CC2)cc1	inconclusive: 11.2 µM [inhibitor, partial curve, poor fit]
CC(=O)N1c2ccc(S(=O)(=O)N3CCC(C(=O)Nc4ccc(C)cn4)CC3)cc2CC1C (stereo not given)	inconclusive: 35.5 µM [inhibitor, single point]
O=C(CCCn1c(=O)c2sccc2n(Cc2cccc(Cl)c2)c1=O)NCc1ccc2c(c1)OCO2	inconclusive: 22.4 µM [inhibitor, single point]
Cc1cccc(-n2ncc3c(NCc4ccccc4)ncnc32)c1	inconclusive: 25.1 µM [inhibitor, single point]

Source: PubChem BioAssay AID588855 (National Center for Advancing Translational Sciences (NCATS), 2011)
